This passage reports max response and AC50 results from PubChem BioAssay (NCATS).

Structures are written as SMILES. Some of the results follow. Shown are side measurements of this screen, not its main read-out; they come without a call. Compounds called inactive in the main read-out are mostly missing here. Words in brackets tell the shape of the fitted curve; partial curves, single points and poor fits give uncertain potencies.

The experiment can be described thus: qHTS Assay for Lipid Storage Modulators (AID 1519). Particulars: Drosophila S3 cells, BODIPY lipid droplet/cell ratio, laser cytometry, cells loaded with oleic acid. The gist of the method: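 Cells seeded at 5,000 per well were treated with compounds over a concentration series and loaded with oleic acid (400 uM, as added). Lipid droplet fluorescence (488 nm excitation, 500-530 nm channel) was read by laser-scanning cytometry and normalized to 20 uM Triacsin C.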
(In general: qHTS replaces the single test concentration by a dilution series.)

Setting [1] is: measured here: cell count channel max response.
[2] abbreviates: measured here: cell number channel AC50.
Where [3] appears, read: measured here: lipid (BODIPY) channel AC50.
[4] abbreviates: measured here: lipid channel max response.
Tags tell the direction and shape of the fitted curve.

On to `O=c1cc(-c2ccccc2O)oc2ccc3ccccc3c12`, for which the max response is, setting by setting: under setting [1], 79.6%; under setting [4], 102%. Also, the AC50 (commonly the concentration at which the activity in the assay is half-maximal) reads like this: under setting [2], 10000 nM [rising, partial curve]; under setting [3], 12600 nM [rising, partial curve].
Take `CCNc1ncc2nc(-c3cccs3)c(=O)n(Cc3cccc(OC)c3)c2n1`: the max response is 30.1% under setting [1] and 29.7% under setting [4]. The AC50 runs as follows: under setting [2], 50.1 nM [rising, full curve, poor fit]; under setting [3], 56.2 nM [rising, full curve, poor fit].
For the compound `COc1ccccc1N1CCN(CCn2c(=O)[nH]c3c([nH]c4ccccc43)c2=O)CC1`, the max response under setting [1] came to 43.4% and the max response under setting [4] came out at 59.1%. The AC50 is 891 nM [rising, full curve] under setting [2] and 891 nM [rising, full curve] under setting [3].
As for `COc1ccccc1-c1cncnc1NCc1ccccc1`, the max response runs as follows: under setting [1], 34.5%; under setting [4], 40.1%. Further, the AC50 under setting [2] is 5620 nM [rising, full curve, poor fit] and the AC50 under setting [3] is 5010 nM [rising, full curve, poor fit].
For `COc1ccc2[nH]cc(CCNc3cc(-c4ccccc4OC)ncn3)c2c1`, the max response by setting is: under setting [1], 9.97%; under setting [4], 9.44%. For the same compound, the AC50 under setting [2] was 398 nM [rising, full curve] and the AC50 under setting [3] was 355 nM [rising, full curve].
Regarding `N[C@@H](C(=O)O)c1ccc(C(=O)O)cc1`, the max response runs as follows: under setting [1], 42.5%; under setting [4], 49.5%. In addition, the AC50 runs as follows: under setting [2], 39800 nM [rising, single point]; under setting [3], 39800 nM [rising, single point].
With `CN(C)C(=O)c1ccc(-c2nc(-n3ccnc3)c3ccccc3n2)cc1`, the max response turned out to be 30% under setting [1] and 38.9% under setting [4]. The AC50 under setting [2] was 316 nM [rising, full curve] and the AC50 under setting [3] was 316 nM [rising, full curve].
`CN(C)C(=O)c1ccc(-c2ccc3ncnc(NCCN4CCOCC4)c3c2)cc1`: the max response reads like this: under setting [1], 34.6%; under setting [4], 41.1%. The AC50 under setting [2] is 5620 nM [rising, full curve] and the AC50 under setting [3] was 3980 nM [rising, full curve].
For `COc1ccccc1-c1ccc2ncnc(N(C)Cc3ccco3)c2c1`, the max response runs as follows: under setting [1], 27.2%; under setting [4], 32.3%. The AC50 is, setting by setting: under setting [2], 3550 nM [rising, partial curve]; under setting [3], 3160 nM [rising, partial curve].
In the case of `CCCCCCCCN[C@@H](C)[C@H](O)c1ccc(SC(C)C)cc1`, the max response by setting is: under setting [1], -37%; under setting [4], -83%. In addition, the AC50 is, setting by setting: under setting [2], 15800 nM [falling, single point]; under setting [3], 15800 nM [falling, single point].
In the case of `Cc1nc2cncnc2n(Cc2ccccc2Cl)c1=O`, the max response reads like this: under setting [1], 24.4%; under setting [4], 31.2%. For the same compound, the AC50 runs as follows: under setting [2], 2240 nM [rising, full curve, poor fit]; under setting [3], 1580 nM [rising, full curve, poor fit].
Turning to `COc1ncc2nc(-c3ccc(Cl)cc3)c(=O)n(C[C@H]3CCCO3)c2n1`, the max response turned out to be 19% under setting [1] and 25.2% under setting [4]. The AC50 is, setting by setting: under setting [2], 6.31 nM [rising, full curve, poor fit]; under setting [3], 11.2 nM [rising, full curve, poor fit].
Turning to `COc1cc2c(cc1OC)C1C(=O)c3c(O)cc4c(c3OC1CO2)C=CC(C)(C)O4` (stereo unspecified), the max response reads like this: under setting [1], -59.3%; under setting [4], -104%. Further, the AC50 runs as follows: under setting [2], 12600 nM [falling, partial curve]; under setting [3], 1410 nM [falling, full curve].
Regarding `COc1ccc(C(=O)N2CCC[C@@]3(CCN(c4ccccc4)C3)C2)cc1`, the max response is, setting by setting: under setting [1], 16.5%; under setting [4], -4.14%. Also, the AC50 by setting is: under setting [2], 89.1 nM [rising, full curve, poor fit]; under setting [3], 50.1 nM [rising, full curve].
For the compound `FC(F)(F)c1ccccc1-c1cc(NCc2cccs2)ncn1`, the max response under setting [1] was 37% and the max response under setting [4] is 40.2%. For the same compound, the half-maximal activity concentration (AC50) under setting [2] is 5620 nM [rising, partial curve] and the AC50 under setting [3] is 3980 nM [rising, partial curve].
Consider `COc1ccc2[nH]cc(CCNc3cc(-c4ccccc4Cl)ncn3)c2c1`, for which the max response turned out to be 24.6% under setting [1] and 34.1% under setting [4]. The AC50 was 1780 nM [rising, partial curve, poor fit] under setting [2] and 1410 nM [rising, full curve, poor fit] under setting [3].
On to `COc1ccc2[nH]cc(CCNc3cc(-c4cccc(C#N)c4)ncn3)c2c1`, for which the max response is, setting by setting: under setting [1], 12.9%; under setting [4], 17.7%. The AC50 is 89.1 nM [rising, full curve] under setting [2] and 89.1 nM [rising, full curve] under setting [3].
With `COc1ccc(-c2ccc(N)[n+](CCCC(=O)O)n2)cc1`, the max response runs as follows: under setting [1], 41.3%; under setting [4], 41.8%. The AC50 by setting is: under setting [2], 14100 nM [falling, partial curve, poor fit]; under setting [3], 14100 nM [falling, single point].
On to `Cc1cnc(CNc2cc(-c3cccnc3)ncn2)cn1`, for which the max response is, setting by setting: under setting [1], 39.2%; under setting [4], 48.2%. Also, the AC50 by setting is: under setting [2], 1580 nM [rising, full curve, poor fit]; under setting [3], 3160 nM [rising, partial curve, poor fit].
